Results from PMC4336329 (PLoS ONE, 2015).
Among all 310,000 compounds or so, about 14,000 (4.5%) showed an effect of 50% or more. The effect is printed as a negative number. The list shows a part of the results.

The compounds below were run against human ether-à-go-go-related gene (hERG) potassium channel (human, UniProt Q12809) (assay: primary screen, population patch clamp on CHO cells stably expressing hERG).
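Also: peak tail current of the secondary pulse compared with the same well before compound.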

Sequence of human ether-à-go-go-related gene (hERG) potassium channel (Q12809 whole entry, looked up): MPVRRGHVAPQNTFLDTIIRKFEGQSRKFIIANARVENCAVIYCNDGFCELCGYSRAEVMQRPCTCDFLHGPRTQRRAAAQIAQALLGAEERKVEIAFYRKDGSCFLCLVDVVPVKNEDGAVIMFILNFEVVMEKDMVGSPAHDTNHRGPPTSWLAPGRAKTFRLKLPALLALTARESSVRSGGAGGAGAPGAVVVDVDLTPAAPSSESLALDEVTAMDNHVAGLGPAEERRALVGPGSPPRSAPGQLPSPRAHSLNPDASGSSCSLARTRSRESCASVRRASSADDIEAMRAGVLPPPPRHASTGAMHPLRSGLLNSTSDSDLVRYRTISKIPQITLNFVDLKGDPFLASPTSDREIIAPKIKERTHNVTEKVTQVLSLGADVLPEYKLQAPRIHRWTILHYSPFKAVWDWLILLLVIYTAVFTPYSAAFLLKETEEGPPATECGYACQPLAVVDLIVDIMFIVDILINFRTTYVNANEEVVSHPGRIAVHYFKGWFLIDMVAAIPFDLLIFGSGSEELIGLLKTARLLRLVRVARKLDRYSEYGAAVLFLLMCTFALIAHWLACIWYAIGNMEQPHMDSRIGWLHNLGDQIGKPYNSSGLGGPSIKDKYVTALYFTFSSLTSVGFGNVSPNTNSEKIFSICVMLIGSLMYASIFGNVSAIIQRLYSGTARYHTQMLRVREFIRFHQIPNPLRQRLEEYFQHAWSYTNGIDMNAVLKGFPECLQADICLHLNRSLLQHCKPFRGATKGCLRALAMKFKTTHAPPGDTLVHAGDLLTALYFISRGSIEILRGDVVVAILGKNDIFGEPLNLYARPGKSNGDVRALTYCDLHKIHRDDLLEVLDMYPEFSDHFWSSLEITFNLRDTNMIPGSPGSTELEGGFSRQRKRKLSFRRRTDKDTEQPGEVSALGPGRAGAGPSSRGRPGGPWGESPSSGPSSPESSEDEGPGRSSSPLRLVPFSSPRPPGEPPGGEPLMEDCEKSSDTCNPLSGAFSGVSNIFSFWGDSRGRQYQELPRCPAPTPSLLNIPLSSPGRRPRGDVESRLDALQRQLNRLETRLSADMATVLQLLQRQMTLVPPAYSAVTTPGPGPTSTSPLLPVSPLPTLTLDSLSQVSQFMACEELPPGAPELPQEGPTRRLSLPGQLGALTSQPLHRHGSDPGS

Row | Structure (SMILES) | hERG current change (%, negative = inhibition) at 10uM [%]
1 | CCC(C(=O)N1CCCC1)n1nc(C)c2c(C)n(-c3ccccc3)nc2c1=O (stereo not shown) | -4.28
2 | CC(NC(=O)c1ccc(N2CCCC2=O)cc1)c1ccccc1 (stereo not shown) | -5.21
3 | CCOC(=O)c1nn(-c2ccc(C)cc2)c(=O)cc1OCC(=O)Nc1cc(C)ccc1OC | -2.12
4 | CCOC(=O)N1CCN(C(=O)c2ccc(Cl)c(S(=O)(=O)N3CCCC3)c2)CC1 | 2.38
5 | Cc1cccn2c(=O)c3cc(C(=O)NCCc4ccccc4)c(=N)n(Cc4ccco4)c3nc12 | -74
6 | COc1ccc(CNC(=O)C2CCC(=O)N(CC3CCCCC3)C2)cc1 (stereo not shown) | -5.93
7 | COc1ccc(C(=O)CSc2ncnc3nc[nH]c23)cc1 | 4.35
8 | O=C(NCCCN1CCOCC1)c1cc(Cl)ccc1OCc1ccccc1 | -55.7
9 | CCC(C)NC(=O)C1(NC(=O)Nc2ccccc2)CCCCC1 (stereo not shown) | 23
10 | CCN(CC)C(=O)COc1coc(CN2CCN(c3ccccc3F)CC2)cc1=O | 2.56
11 | Cc1ccc(N(CC(=O)NC2CCCCCC2)S(=O)(=O)c2c(C)nn(C)c2C)cc1 | -21.7
12 | CN(C)c1ccc(N=Nc2ccc(C(=O)O)cc2)cc1 | 9.66
13 | COC(=O)c1c(NC(=O)CN2CCN(c3ccccc3)CC2)c2c(C)cccc2n1C | -8.56
14 | CCN(CC)S(=O)(=O)c1ccc(C)c(NC(=S)NNC(=O)C2CC2)c1 | 11.1
15 | Cn1cnc2c(N/N=C/c3cccs3)ncnc21 | 15.5
16 | CC1CCN(C(=O)CCc2ccc(Oc3cc([N+](=O)[O-])cc([N+](=O)[O-])c3)cc2)CC1 | -25.9
17 | CC1CCN(C(=O)CNC(=O)CNC(=O)Cc2ccccc2)CC1 | 4.9
18 | COc1cc(NC(=O)NCC2CCN(Cc3ccc(C)cc3)CC2)cc(OC)c1OC | -0.392
19 | Cc1noc(C)c1C(=O)OCC(=O)c1c[nH]c2ccccc12 | 2.44
20 | Cc1nn(C)cc1/C=C/C(=O)c1cccs1 | -12.3
21 | Cc1nc(-c2ccccc2)sc1C1(C)CC(c2cccc([N+](=O)[O-])c2)=NO1 (stereo not shown) | 13.4
22 | COc1ccc(S(=O)(=O)NC(CC(=O)NCCc2ccc(OC)c(OC)c2)c2ccco2)cc1 (stereo not shown) | -8.6

Row | Structure (SMILES) | hERG current change (%, negative = inhibition) at 10uM [%]
23 | C=CCn1c(SCC(=O)Nc2sccc2C(N)=O)nc2sc(CC)cc2c1=O | -1.95
24 | Cc1ccc(NC(=O)Nc2c(Cl)cccc2Cl)cn1 | 14
25 | Cc1ccccc1C(=O)NCCNc1ccc([N+](=O)[O-])cc1 | -10.1
26 | Cc1[nH]c2ccccc2c1/C=N/Nc1nncn1N.Cl | 10
27 | Cc1nc(SCC(=O)NC2CCS(=O)(=O)C2)c2c(C)c(C)sc2n1 (stereo not shown) | 6.15
28 | O=C(O)c1nn(CC(=O)N2CCN(c3ncc(C(F)(F)F)cc3Cl)CC2)c(=O)c2ccccc12 | -18.9
29 | CCOC(=O)Cc1csc(SCC(=O)Nc2cc(C)ccc2OC)n1 | 21.3
30 | COc1ccc(NC(=O)[C@H](NC(=O)[C@@H]2Cc3ccccc3CN2)c2ccccc2)cc1 | -50.3
31 | CCOc1ccc(NC(=O)CCc2nnc3ccc(N4CCC5(CC4)OCCO5)nn23)cc1 | 5.36
32 | O=C(Nc1ccc(Cl)c(C(F)(F)F)c1)[C@@H]1CC=C[C@@H]2CCN(C3CC3)C(=O)[C@@H]21 | -5.36
33 | COc1cc(S(=O)(=O)Nc2ccccc2)ccc1N=Cc1c(C)[nH]n(-c2ccc(C)cc2)c1=O | 7.88
34 | O=C(OCc1nnc(-c2ccccc2)o1)c1ccc2ccccc2n1 | 8.19
35 | Cc1cc(C)cc(NC(=S)Nc2cccc3ccccc23)c1 | -14.6
36 | CCOC(=O)c1c(C)c(C(=O)Nc2ccc(N(C)C)cc2)c(C)n1CC | -1.83
37 | COc1ccc(S(=O)(=O)N2CCOC2CNC(=O)C(=O)NCc2ccco2)cc1 (stereo not shown) | -17.8
38 | Cc1cc(C)n(-c2ccc(C(=O)NC3CCCCC3)cc2)n1 | 12.7
39 | CCOC(=O)NCC(C)(C)CNC(=O)OCC | 11.4
40 | C[C@@H]1C2C[C@@]34COC(=O)C3=CC=C[C@H]4[C@@]13C[C@H](c1ccoc1)O[C@@H]3O2 | -34.2
41 | NC1=NC(=O)CC(C(=O)NCc2ccccc2)S1 (stereo not shown) | 16.8
42 | CC1(C)CC2CC(C)(CN2C(=O)c2cc(-c3ccccc3O)on2)C1 (stereo not shown) | 12.7
43 | Cn1cc(C(=O)OCC2CCN(CCNS(C)(=O)=O)CC2)c2ccccc21 | -37.2
44 | COc1cc(C2NC(=O)CS2)cc(OC)c1OC (stereo not shown) | -2.54

Row | Structure (SMILES) | hERG current change (%, negative = inhibition) at 10uM [%]
45 | Clc1ccc2nc(-c3ccccc3)cn2c1 | 12.9
46 | Cc1cc(=O)n2nc(N3CCCC(C(=O)N4CCN(C)CC4)C3)sc2n1 (stereo not shown) | -7.39
47 | CC1(C)Cc2c(C#N)c(NCCN3CCOCC3)nc(-c3ccco3)c2CO1 | -6.23
48 | COC(=O)c1nn(-c2ccc(OC)cc2)c(=O)cc1Oc1ccccc1 | -12.6
49 | C=CCn1c(C(C)NC(=O)c2cccs2)n[nH]c1=S (stereo not shown) | 5.32
50 | COc1cc2c(cc1OC)C(c1ccc([N+](=O)[O-])cc1)N(C(C)=O)CC2 (stereo not shown) | -4.99
51 | COc1ccc(OCC(=O)NC2CCCc3ccccc32)cc1 (stereo not shown) | 10.9
52 | O=C(NCc1ccccn1)Nc1cccc(Cl)c1Cl | 9.25
53 | CCn1c(CNc2ccc(OC)cc2)nnc1SCC(=O)Nc1ccc(F)cc1 | -29.9
54 | COc1ccc(CNC(=O)C2CCCN(S(=O)(=O)c3cccc4nsnc34)C2)cc1 (stereo not shown) | -10.2
55 | CCOC(=O)C1=C(COC(=O)c2cc(S(=O)(=O)N(C)C)ccc2C)NC(=O)NC1C (stereo not shown) | -21.3
56 | O=C1CC(N2CCC(c3nc4ccccc4[nH]3)CC2)C(=O)N1c1ccccc1F (stereo not shown) | -6.91
57 | COc1ccc(C(C(=O)NC2CCCC2)N(C(=O)c2snc(C(N)=O)c2N)c2cc(C)ccc2OC)cc1OC (stereo not shown) | -2.45
58 | CCCCn1c2c(c(=N)c3ccccc31)CCC2.I | -50.3
59 | COc1ccc(C2CC(c3cccs3)=NN2S(=O)(=O)c2ccc(C)cc2)cc1 (stereo not shown) | 6.02
60 | Cc1cc(C)c2c(n1)SCC(=O)N2CC(=O)Nc1ccc(Br)c(C)c1 | -29.7
61 | Cc1nc(CC(=O)Nc2nc(-c3ccccc3)cs2)cs1 | -8.56
62 | CCCCCC/C(C=O)=C\c1ccccc1 | 24.4
63 | O=C1CCC(C(=O)N2CCC(O)CC2)CN1CCc1ccc(Cl)cc1 (stereo not shown) | 1.38
64 | CC(C)(C)c1ccc(C(=O)NCCCNC(=O)c2ccco2)cc1 | -10.8
65 | Nc1[nH]c(=S)[nH]c(=O)c1-c1ccccc1 | 14.5
66 | O=C(N/N=C(\c1ccccc1)c1cccnc1)c1cccc(F)c1 | -61.5

Row | Structure (SMILES) | hERG current change (%, negative = inhibition) at 10uM [%]
67 | Cc1ccc(C)c(OCCC(=O)NNC(=O)c2cc(C)oc2C)c1 | -12.1
68 | CN(C)c1nccc(NCc2ccccc2)c1C#N | -22.1
69 | COc1ccc(CC(=O)Nc2cc(C)c3c(=O)oc4ccccc4c3n2)cc1 | -4.96
70 | Cc1ccc(S(=O)(=O)N2CCC(C(=O)N[C@H](C(=O)N3CCN(C)CC3)C(C)C)CC2)cc1 | 10.8
71 | COc1cc(NC(=O)N2CCOCC2)cc(OC)c1 | 2.6
72 | CCN(CC)N=Nc1ccc(S(=O)(=O)N2CCSC2C(=O)[O-])cc1.[K+] (stereo not shown) | 28.2
73 | CCn1ccc(C(=O)Nc2ccc(N(C)C(C)=O)cc2)n1 | 14
74 | CNc1cc(C)nc(N2CCOCC2)n1 | 19.1
75 | O=C(NCc1ccccc1Cl)C1=CC=CN2CCS(=O)(=O)N=C12 | -11.1
76 | CC1(C)Cc2c(sc(NC(=O)COc3ccc(Cl)cc3)c2C(N)=O)C(C)(C)N1 | 0.951
77 | CCc1ccc2oc(=O)cc(CN3CCC(C)CC3)c2c1 | -2.21
78 | CCOC(=O)N/N=C(\CCC(=O)O)c1cccs1 | 14.5
79 | Nc1cc(Cl)c2nonc2c1[N+](=O)[O-] | -8.96
80 | COC(=O)c1c(NC(=O)/C=C/c2ccc3c(c2)OCO3)sc(C)c1C | 4.75
81 | CCC(=O)NC1(C(F)(F)F)C(=O)NC(C)=C1C#N (stereo not shown) | 4.2
82 | CCc1nnc(NC(=O)CSc2nnc(CNc3ccc(OC)cc3)n2C)s1 | 13.4
83 | COc1cc(/C=C2/C(=N)N3C=CSC3=NC2=O)ccc1OCCCOc1c(C)cccc1C | -0.849
84 | CC(=O)c1c(C)[nH]c(C(=O)OCC(=O)Nc2cc(S(=O)(=O)N3CCCCC3)ccc2C)c1C | 3.32
85 | CC(=O)c1c(Cl)nc2cccc3c2c1-c1ccccc1C3=O | 4.8
86 | Cc1cc(-c2ccc(C(C)C)c(S(=O)(=O)N3CC(=O)Nc4ccccc43)c2)on1 | -1.21
87 | CCC(C)[C@H](NC(=O)N1CC(=O)Nc2ccccc21)C(=O)N[C@H](C(=O)O)c1ccccc1 (stereo partly shown) | 7.19
88 | Cc1cccc(/C(N)=N/OC(=O)c2ccco2)c1 | -12.1
